Test results as given in US5424395A (priority 1992, dated 1995).
At least one peptide structure holds a part that was inferred or is arguable (an end, a ring closure or a residue). Some entries repeat one wording, which the source may state once for all of them. Where no end group is shown, it is not given here.

Legend:
[1] = tested on: Erwinia carotovora carotovora strain SR319 (Ecc SR319); assay: Antibacterial bioassay, minimum complete inhibitory concentration (MCIC); format: cell-based; conditions: for MEAN MCIC VALUE: lowest peptide concentration with no bacterial growth, after 20 hours, Luria broth, 28° C., mean of at least three replicate experiments; for activity against bacteria (in words): AMPPPs named as having diminished activity against bacteria; for activity against Ecc SR319 (in words): even at concentrations higher than 150 micrograms AMPPP/mL; for activity against plant pathogenic fungi compared with bacterium Ecc SR319 (in words): comparison of Table II with Table I
Experimental: Erwinia carotovora carotovora strain SR319 (Ecc SR319) (a gift of Dr. C. H. Liao, USDA-ARS, Philadelphia, Pa.) was streaked on a plate of LB agar and grown overnight at 28° C. After 24 hours, a loopful of Ecc SR319 was picked from the agar plate and was added to 3 mL of Luria broth (10 g Bacto-tryptone, 5 g Bacto-yeast extract, and 10 g sodium chloride per liter of solution; autoclaved sterile) in a capped, sterile 10 mL test tube. This culture was grown overnight before its optical density at 630 nm was recorded using a Dynatech MR600 microplate reader (Dynatech Laboratories, Inc., Alexandria, Va.). A portion of the overnight culture was adjusted with Luria broth to obtain a culture with an optical density at 630 nm of 0.2. About 250 microliters of this culture was added to 2250 microliters of Luria broth in a capped, sterile 10 mL test tube before this diluted culture was grown for 3 hours at 28° C. in a shaking incubator. The optical density at 630 nm of the freshly grown culture was recorded and a portion of this mid-logarithmic growth phase culture was diluted 1000-fold with Luria broth to an approximate concentration of about 10^5 colony forming units per mL of culture. About 85 microliters of this diluted culture was added to 12 wells in a 96 well microtiter plate for each AMPPP to be tested, with 1-4 replicate sets of 12 wells prepared for each AMPPP within a single experiment. Stock solutions of each AMPPP were prepared at a concentration of 1 mg/mL and 0-15 microliters of each peptide stock solution were added to a single well in the microtiter plate followed by a sufficient volume of water to bring the total well volume to 100 microliters. Typical peptide volumes assayed were 0, 1, 2, 3, 4, 5, 6, 7, 8, 9, 10 and 15 microliters, which corresponds to a final peptide concentration in the range of 0-150 micrograms/mL. The microtiter plates were sealed with parafilm and incubated on a shaking platform at 28° C. for 44 hours. The optical density of each Ecc SR319 culture well was recorded at 20 hours and then at 44 hours. A minimum complete inhibitory concentration (MCIC) was then determined for each replicate set of varying peptide concentrations for each AMPPP whereby the MCIC is defined as the lowest peptide concentration at which no bacterial growth was observed. Table I lists mean MCIC values computed after 20 hours of treatment from at least three replicate experiments with each AMPPP. "Met(S)(O)" and "Met(R)(O)" refer to the diastereomeric forms of a methionine sulfoxide residue.
Although most of the AMPPP compounds listed in Table I were greater than 95% homogeneous following reverse phase HPLC purification, AMPPPs #24-26 and #28 were only 50-80% pure following partial purification and salt exchange by ion exchange chromatography.

Trichoderma reesei = assay: Antifungal bioassay (spore germination MCIC); format: cell-based; conditions: lowest concentration with no spore germination; after 24 hours; 10^6 spores
Experimental: Fungi are grown on an appropriate medium, in this case a potato dextrose agar plate, for several weeks. At the end of that period, the plate was flooded with about 5 mL of sterile distilled water to harvest spores. The spore concentration was determined by use of a hemocytometer and the spore suspension was stored in a sterile tube at 4° C. until it was needed. Then 82 microliters of potato dextrose broth and 3 microliters of spore suspension (ranging from 10^5 to 10^7 spores total) was then added to 12 wells in a 96 well microtiter plate for each AMPPP to be tested, with 1-4 replicate sets of 12 wells prepared for each AMPPP within a single experiment. In several instances, more than one spore concentration was used in order to determine the efficacy of certain AMPPPs as a function of the number of target spores. Stock solutions of each AMPPP were prepared at a concentration of 1 mg/mL and 0-15 microliters of each peptide stock solution were added to a single well in the microtiter plate followed by a sufficient volume of water to bring the total well volume to 100 microliters. Typical peptide volumes assayed were 0, 1, 2, 3, 4, 5, 6, 7, 8, 9, 10, and 15 microliters, which corresponds to a final peptide concentration in the range of 0-150 micrograms/mL. The microtiter plates were sealed with parafilm and incubated at room temperature for 48 hours. The fungal growth was observed after 24 and 48 hours by microscope using a 4× and/or a 10× objective lens. The amount of spore germination and fungal growth was recorded as a qualitative measurement at each observation time using a system of pluses and minuses: [-] meant no germination having occurred, [+] meant swollen spores with an extended germ tube, [++] meant the beginnings of mycelial growth with the overall appearance of a loose lattice, and [+++] meant a dense mycelial growth with the overall appearance of a thick opaque meshwork. The MCIC value for each AMPPP tested was then recorded, where the MCIC value is defined as the lowest peptide concentration at which no spore germination occurred (rating=[-]). Table II lists mean MCIC values computed after 24 hours of treatment from at least three replicates with each AMPPP for each of two or three plant pathogenic fungi tested: Alternaria alternata (a gift of Dr. Harvey Spurr, Jr., USDA-ARS, Oxford, N.C.), P3 Fusarium (field isolate), and Trichoderma reesei (a gift of Dr. John Ellis, USDA-ARS, Peoria, Ill.). The identity of AMPPPs in Table II is the same as detailed in Table I.

| Substance | MEAN MCIC VALUE [1] | Mean MCIC Values against: Trichoderma reesei (10^6 spores) (Trichoderma reesei) | activity against bacteria (in words) [1] | activity against Ecc SR319 (in words) [1] | activity against plant pathogenic fungi compared with bacterium Ecc SR319 (in words) [1] |
| --- | --- | --- | --- | --- | --- |
| GIGKFLHSAKKFGKAFVGEIMNS-NH2 [AMPPP 29, Mag 2--NH2, reference compound] | 20 micrograms/mL | 40 micrograms/mL |  |  |  |
| GIGKFLHTAKKFGKAFVGEIMNS [AMPPP 15, [Thr^8]Mag 2-OH] | > 150 micrograms/mL |  | diminished activity against bacteria | not active |  |
| GIGKFLHSAGKFGKAFVGEIKS [AMPPP 8, [Des Met^21]Mag 1-OH, reference compound] | > 150 micrograms/mL | 75 micrograms/mL |  | not active |  |
| IGKFLHSAGKFGKAFVGEIMKS [AMPPP 24, [Des Gly^1]Mag 1-OH, reference compound] | 70 micrograms/mL | > 150 micrograms/mL |  |  |  |
| MGIGKFLHSAGKFAKAFVAEIMKS [AMPPP 27, Met [Ala^13, Ala^18]Mag 1-OH] | 25 micrograms/mL | 55 micrograms/mL |  |  | approximately as active against plant pathogenic fungi as against bacterium Ecc SR319 |
| MGIGKFLHSAGKFGKAFVGEIMKS [AMPPP 25, [Met]Mag1-OH] | 55 micrograms/mL | 80 micrograms/mL |  |  |  |
| GIGKFLHSAGKFAKAFVAEIMKS [AMPPP 26, [Ala^13, Ala^18]Mag 1-OH] | 15 micrograms/mL | 55 micrograms/mL |  |  | much more effective against plant pathogenic fungi than against bacterium Ecc SR319 |
| GIGKFLHSAGKFGKAFVAEIMKS [AMPPP 28, [Ala^18]Mag 1-OH] | 20 micrograms/mL | 60 micrograms/mL |  |  |  |
| GIGKFLRSAKKFGKAFVGEIMNS [AMPPP 19, [Arg^7]Mag 2-OH] | 30 micrograms/mL | 65 micrograms/mL |  |  | approximately as active against plant pathogenic fungi as against bacterium Ecc SR319 |
| GIGKFLHSAKPFGKAFVGEIMNS [AMPPP 5, [Pro^11]Mag 2-OH] | > 150 micrograms/mL | 90 micrograms/mL |  | not active |  |
| GIGKFLFSAKKFGKAFVGEIMNS [AMPPP 20, [Phe^7]Mag 2-OH] | 140 micrograms/mL | 70 micrograms/mL | diminished activity against bacteria |  |  |
| GKFLHSAGKFGKAFVGEIMKS [AMPPP 23, [Des Gly^1, Des Ile^2]Mag 1-OH] | > 150 micrograms/mL | 150 micrograms/mL |  | not active |  |
| GIGKFLHEAKKFGKAFVGEIMNS [AMPPP 17, [Glu^8]May 2-OH] | > 150 micrograms/mL |  | diminished activity against bacteria |  | much more effective against plant pathogenic fungi than against bacterium Ecc SR319 |
| GIGKFLHSAKKFGKAFVGEIMN [AMPPP 21, [Des Ser^23]Mag 2-OH, reference compound] | 50 micrograms/mL | 50 micrograms/mL |  |  | approximately as active against plant pathogenic fungi as against bacterium Ecc SR319 |
| GIGKFLHAAKKFGKAFVGEIMNS [AMPPP 16, [Ala^8]Mag 2-OH, reference compound] | 70 micrograms/mL |  |  |  | approximately as active against plant pathogenic fungi as against bacterium Ecc SR319 |
